According to PMC8732845, “Novel interaction between neurotrophic factor-α1/carboxypeptidase E and serotonin receptor, 5-HTR1E, protects human neurons against oxidative/neuroexcitotoxic stress via β-arrestin/ERK signaling” (Cellular and Molecular Life Sciences: CMLS, 2021):

Biological target: T1, [125I] NF-α1/CPE (radiolabelled recombinant neurotrophic factor-α1/carboxypeptidase E) (mouse, UniProt Q00493 28-476, 125I label (residues not stated))
T1 construct: neurotrophic factor-α1/carboxypeptidase E, mouse, recombinant, 53 kDa; also called hot CPE; source: recombinant, custom-synthesized and highly purified by GenScript
Test: radioligand binding; saturation binding: ~200,000 5-HTR1E stable HEK293 cells with 1.25–30 nM [125I] NF-α1/CPE, with or without 500 nM cold NF-α1/CPE, 1 ml serum-free DMEM, 3 h on ice; specific binding fitted by non-linear regression (GraphPad PRISM 8.0)
Settings: one partner purified

Kd: 13.8 nM
B1: 5-hydroxytryptamine receptor 1-E (5-HTR1E) on stably transfected HEK293 cells (receptor, human, UniProt P28566 1-365, looked up)
chain: MNITNCTTEASMAIRPKTITEKMLICMTLVVITTLTTLLNLAVIMAIGTTKKLHQPANYLICSLAVTDLLVAVLVMPLSIIYIVMDRWKLGYFLCEVWLSVDMTCCTCSILHLCVIALDRYWAITNAIEYARKRTAKRAALMILTVWTISIFISMPPLFWRSHRRLSPPPSQCTIQHDHVIYTIYSTLGAFYIPLTLILILYYRIYHAAKSLYQKRGSSRHLSNRSTDSQNSFASCKLTQTFCVSDFSTSDPTTEFEKFHASIRIPPFDNDLDHPGERQQISSTRERKAARILGLILGAFILSWLPFFIKELIVGLSIYTVSSEVADFLTWLGYVNSLINPLLYTSFNEDFKLAFKKLIRCREHT
notes: 5-hydroxytryptamine receptor 1E, human, stably expressed on HEK293 cells; also called serotonin receptor 5-HTR1E; source: HEK293 cells stably expressing 5-HTR1E (Dr. Bryan Roth's laboratory), on cells
